About 200 (0.47%) of roughly 43,000 compounds were called active. Another 12% or so got no clear call; they are omitted. The call rests on the fitted dose curve; in most records, active means well fitted cell-killing curve with a large enough effect; inconclusive means small, poorly fitted or top-dose-only effect, or effect the other way; inactive means flat fitted curve, though single readings scatter. The list shows a part of the results.
Assay: Cell viability qHTS assay in S16 Pmp22-F2sN cells; further: nearly all actives have a fitted effect of over 65% in size
Settings: S16 Pmp22-F2sN Schwann cells viability, CellTiter-Glo, 24 h; series mostly up to 57.5 µM; activity change, negative = cytotoxicity: at the top concentration
Procedure, shortened: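 Viability was measured by CellTiter-Glo luminescence (15 min, room temperature). This followed 24 h at 37 °C of compound exposure (23 nL pin transfer) in S16 Pmp22-F2sN Schwann cells, 500-1,000 per well.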
On the % scale 0 is the no-effect control and ±100 the full control effect.

SMILES	activity change, negative = cytotoxicity
CCOc1ccccc1CNC(=O)CN1C(=O)CCc2cc(S(=O)(=O)N3CCCCC3)ccc21	inactive: 18.9%
Cc1cccc(OCC(=O)Nc2ccc3nc(Nc4cccc(Cl)c4)cc(C)c3c2)c1	inactive: 18.8%
COc1ccc(CN2C(=O)C(NC(=O)c3ccccc3OC)(C(F)(F)F)N=C2c2ccccc2)cc1 (stereo not drawn)	inactive: 10.3%
CCc1ccc(NC(=O)CCn2cnc3ccccc3c2=O)cc1	inactive: -2.43%
CCc1ccc(S(=O)(=O)c2nnn(-c3cccc(C)c3)c2N)cc1	inactive: 21.4%
CCOc1ccc(CNC(=O)CCCn2c(=O)c3cccn3c3ccc(F)cc32)cc1	inactive: 21.9%
Cn1c(=O)c(=O)n(C)c2cc(NC(=O)c3ccccc3Br)ccc21	inactive: -2.11%
Cc1ccc(-n2nc(C)c3c(C(=O)Nc4ccc(Br)c(C)c4)cc(C)nc32)cc1	inactive: 18.6%
COc1ccccc1Nc1ncnc2c1nc1n2CCCC1	inactive: 11.3%
Cc1ccc(-c2nc3cccnc3s2)cc1NC(=O)Cc1ccccc1	inactive: -15.3%
COc1ccc(NC(=O)Cn2ccn(-c3ccccc3)c(=O)c2=O)cc1	inactive: 1.15%
COc1ccc(CCC(=O)NCc2ccc3c(c2)CCN3C(=O)c2ccc(C)cc2)cc1	inactive: 16%
COc1cccc(-c2nc(SCC(=O)N3CCc4ccccc43)c3c(=O)n(C)c(=O)n(C)c3n2)c1	inactive: -5.01%
CCOCCCn1c(=N)c(C(=O)NCC2CCCO2)cc2c(=O)n3cc(C)ccc3nc21 (stereo not drawn)	inactive: 1.72%
COCCNC(=O)CSc1nc(-c2ccc(C)cc2)nc2c1c(=O)n(C)c(=O)n2C	inactive: 17.9%
COC(=O)C1=C(C)NC(=O)C1(NC(=O)c1ccccc1C)C(F)(F)F (stereo not drawn)	inactive: 0.93%
Cc1cc(C)cc(NC(=O)C2(c3cccs3)CCOCC2)c1	inactive: 19%
COc1ccccc1CNC(=O)Cn1nc(C)c2nn(-c3ccc(Cl)cc3)c(C)c2c1=O	inactive: 2.42%
CC(C)c1ccc(Nc2ncnc3c2c(-c2ccccc2)cn3-c2ccccc2)cc1	inactive: 0.165%
CCCCOc1ccc(C2=NC(c3ccccc3)=Nc3ccc(OC)cc3N2)cc1	inactive: -18.4%
Cn1c(=O)c2c(-c3ccccc3Br)n(CCc3ccccc3)cc2n(C)c1=O	inactive: -5.02%
Clc1ccccc1Cc1cn2cc(-c3ccccc3)nc2s1	inactive: 19.7%
CCc1ccc(NC(=O)CSc2nnc(-c3cc4occc4n3C)n2-c2ccccc2C)cc1	inactive: -17.9%
C=CCc1c(C)nc2nc(SCC(=O)Nc3ccc(OCC)cc3)nn2c1C	inactive: 9.09%
COc1cccc(CNC(=O)Cn2ccc3cc(S(=O)(=O)N4CCC(C)CC4)ccc32)c1	inactive: -10.9%
CC(C)COc1ccccc1C1CC(=O)Nc2cc3c(cc21)OCO3 (stereo not drawn)	inactive: -14.4%
COc1ccccc1NC(=O)CSc1nnc2c3ccccc3n(C)c2n1	inactive: 0.819%
Clc1cccc(-n2ncc3c(N4CCN(Cc5ccccc5)CC4)ncnc32)c1	inactive: -2.32%
